# The list shows a part of the results.
# B1: Surfactant Protein D (Human); Neck + Carbohydrate Recognition Domain (NCRD) (Homo sapiens) (protein)
# chain: MLLFLLSALVLLTQPLGYLEAEMKTYSHRTMPSACTLVMCSSVESGLPGRDRDGREGPRGEKGDPGLPGAAGQAGMPGQAGPVGPKGDNGSVGEPGPKGDTGPSGPPGPPGVPGPAGREGALGKQGNIGPQGKPGPKGEAGPKGEVGAPGMQGSAGARGLAGPKGERGVPGERGVPGNTGAAGSAGAMGPQGSPGARGPPGLKGDKGIPGDKGAKGESGLPDVASLRQQVEALQGQVQHLQAAFSQYKKVELFPNGQSVGEKIFKTAQFVKPFTEAQLLCTQAGGQLASPRSAAENAALQQLVVAKNEAAFLSMTDSKTEGKFTYPTGESLVYSNWAPGEPNDDGGSEDCVEIFTNGKWNDRACGEKALVVCEF
# Key:
# Assay in all cases: glycan array binding signal (z-score within array); higher = stronger binding
# Conditions in all cases: glycan notation: IUPAC condensed, linker removed; mutation: R349A
# [1] = target: Neu5Ac(a2-3)Gal(b1-4)[Fuc(a1-3)]GlcNAc
# In short: (§1)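 Negative Z-scores can be read as non-binding. The Z-score is calculated within each array and then averaged across arrays of one protein sequence at different concentrations or buffers and across linkers. Arrays, 3228 in all, were curated from the Consortium for Functional Glycomics database and kept only where the protein sequence was available.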
# [2] = target: Neu5Ac(a2-3)Gal(b1-4)[Fuc(a1-3)]GlcNAc(b1-3)Gal
# In short: as §1
# [3] = target: Neu5Ac(a2-3)Gal(b1-4)[Fuc(a1-3)]GlcNAc(b1-3)Gal(b1-4)GlcNAc
# In short: as §1
# [4] = target: Neu5Ac(a2-3)Gal(b1-4)[Fuc(a1-3)]GlcNAc(b1-3)Gal(b1-4)[Fuc(a1-3)]GlcNAc(b1-3)Gal(b1-4)[Fuc(a1-3)]GlcNAc
# In short: as §1
# [5] = target: Neu5Ac(a2-3)Gal(b1-4)[Fuc(a1-3)]GlcNAc(b1-6)[Gal(b1-3)]GalNAc
# In short: as §1
# [6] = target: Neu5Ac(a2-3)Gal(b1-4)[Fuc(a1-3)]GlcNAc6S
# In short: as §1
# [7] = target: Neu5Ac(a2-3)Gal6S(b1-4)GlcNAc
# In short: as §1
# [8] = target: Neu5Ac(a2-3)Gal6S(b1-4)[Fuc(a1-3)]GlcNAc
# In short: as §1
# [9] = target: Neu5Ac(a2-3)GalNAc
# In short: as §1
# [10] = target: Neu5Ac(a2-3)GalNAc(b1-4)GlcNAc
# In short: as §1
# [11] = target: Neu5Ac(a2-3)[GalNAc(b1-4)]Gal(b1-4)Glc
# In short: as §1
# [12] = target: Neu5Ac(a2-3)[GalNAc(b1-4)]Gal(b1-4)GlcNAc
# In short: as §1
# [13] = target: Neu5Ac(a2-3)[Neu5Ac(a2-6)]GalNAc
# In short: as §1
# [14] = target: Neu5Ac(a2-6)Gal
# In short: as §1
# [15] = target: Neu5Ac(a2-6)Gal(b1-4)Glc
# In short: as §1
# [16] = target: Neu5Ac(a2-6)Gal(b1-4)GlcNAc
# In short: as §1
# [17] = target: Neu5Ac(a2-6)Gal(b1-4)GlcNAc(b1-2)Man(a1-3)[Gal(b1-4)GlcNAc(b1-2)Man(a1-6)]Man(b1-4)GlcNAc(b1-4)GlcNAc
# In short: as §1
# [18] = target: Neu5Ac(a2-6)Gal(b1-4)GlcNAc(b1-2)Man(a1-3)[GlcNAc(b1-2)Man(a1-6)]Man(b1-4)GlcNAc(b1-4)GlcNAc
# In short: as §1
# [19] = target: Neu5Ac(a2-6)Gal(b1-4)GlcNAc(b1-2)Man(a1-3)[GlcNAc(b1-2)Man(b1-4)GlcNAc(b1-2)Man(a1-6)]Man(b1-4)GlcNAc(b1-4)GlcNAc
# In short: as §1
# [20] = target: Neu5Ac(a2-6)Gal(b1-4)GlcNAc(b1-2)Man(a1-3)[Neu5Ac(a2-6)Gal(b1-4)GlcNAc(b1-2)Man(a1-6)]Man(b1-4)GlcNAc(b1-4)GlcNAc
# In short: as §1
# [21] = target: Neu5Ac(a2-6)Gal(b1-4)GlcNAc(b1-2)Man(a1-6)[Gal(b1-4)GlcNAc(b1-2)Man(a1-3)]Man(b1-4)GlcNAc(b1-4)GlcNAc
# In short: as §1
# [22] = target: Neu5Ac(a2-6)Gal(b1-4)GlcNAc(b1-2)Man(a1-6)[GlcNAc(b1-2)Man(a1-3)]Man(b1-4)GlcNAc(b1-4)GlcNAc
# In short: as §1
# [23] = target: Neu5Ac(a2-6)Gal(b1-4)GlcNAc(b1-3)Gal(b1-4)GlcNAc
# In short: as §1
# [24] = target: Neu5Ac(a2-6)Gal(b1-4)GlcNAc(b1-3)Gal(b1-4)[Fuc(a1-3)]GlcNAc(b1-3)Gal(b1-4)[Fuc(a1-3)]GlcNAc
# In short: as §1
# [25] = target: Neu5Ac(a2-6)Gal(b1-4)GlcNAc6S
# In short: as §1
# [26] = target: Neu5Ac(a2-6)GalNAc
# In short: as §1
# [27] = target: Neu5Ac(a2-6)GalNAc(b1-4)GlcNAc
# In short: as §1
# [28] = target: Neu5Ac(a2-8)Neu5Ac
# In short: as §1
# [29] = target: Neu5Ac(a2-8)Neu5Ac(a2-3)Gal(b1-4)Glc
# In short: as §1
# [30] = target: Neu5Ac(a2-8)Neu5Ac(a2-3)[GalNAc(b1-4)]Gal(b1-4)Glc
# In short: as §1
# [31] = target: Neu5Ac(a2-8)Neu5Ac(a2-8)Neu5Ac
# In short: as §1
# [32] = target: Neu5Ac(a2-8)Neu5Ac(a2-8)Neu5Ac(a2-3)Gal(b1-4)Glc
# In short: as §1
# [33] = target: Neu5Ac(a2-8)Neu5Ac(a2-8)Neu5Ac(a2-3)[GalNAc(b1-4)]Gal(b1-4)Glc
# In short: as §1
# [34] = target: Neu5Ac(a2-8)Neu5Ac(a2-8)Neu5Ac(a2-8)Neu5Ac(a2-3)[GalNAc(b1-4)]Gal(b1-4)Glc
# In short: as §1
# [35] = target: Neu5Ac(b2-6)Gal(b1-4)GlcNAc
# In short: as §1
# [36] = target: Neu5Ac(b2-6)GalNAc
# In short: as §1
# [37] = target: Neu5Ac9Ac(a2-6)Gal(b1-4)GlcNAc
# In short: as §1
# [38] = target: Neu5Gc(a2-3)Gal(b1-3)GlcNAc
# In short: as §1
# [39] = target: Neu5Gc(a2-3)Gal(b1-3)[Fuc(a1-4)]GlcNAc
# In short: as §1
# [40] = target: Neu5Gc(a2-3)Gal(b1-4)Glc
# In short: as §1
# [41] = target: Neu5Gc(a2-3)Gal(b1-4)GlcNAc
# In short: as §1
# [42] = target: Neu5Gc(a2-3)Gal(b1-4)[Fuc(a1-3)]GlcNAc
# In short: as §1
# [43] = target: Neu5Gc(a2-6)Gal(b1-4)GlcNAc
# In short: as §1
# [44] = target: Neu5Gc(a2-6)GalNAc
# In short: as §1
# [45] = target: Neu5Gc(b2-6)Gal(b1-4)GlcNAc
# In short: as §1
binder,measurement,setting,value
B1,glycan array binding signal (z-score),[1],0.282
same,glycan array binding signal (z-score),[2],0.555
same,glycan array binding signal (z-score),[3],0.031
same,glycan array binding signal (z-score),[4],-0.593
same,glycan array binding signal (z-score),[5],0.266
same,glycan array binding signal (z-score),[6],0.051
same,glycan array binding signal (z-score),[7],0.308
same,glycan array binding signal (z-score),[8],0.415
same,glycan array binding signal (z-score),[9],0.307
same,glycan array binding signal (z-score),[10],0.241
same,glycan array binding signal (z-score),[11],-0.131
same,glycan array binding signal (z-score),[12],-0.082
same,glycan array binding signal (z-score),[13],0.462
same,glycan array binding signal (z-score),[14],-0.213
same,glycan array binding signal (z-score),[15],-0.389
same,glycan array binding signal (z-score),[16],-0.381
same,glycan array binding signal (z-score),[17],-0.328
same,glycan array binding signal (z-score),[18],-0.053
same,glycan array binding signal (z-score),[19],0.302
same,glycan array binding signal (z-score),[20],-0.157
same,glycan array binding signal (z-score),[21],-0.509
same,glycan array binding signal (z-score),[22],0.085
same,glycan array binding signal (z-score),[23],0.051
same,glycan array binding signal (z-score),[24],0.014
same,glycan array binding signal (z-score),[25],2.51
same,glycan array binding signal (z-score),[26],0.373
same,glycan array binding signal (z-score),[27],0.044
same,glycan array binding signal (z-score),[28],0.49
same,glycan array binding signal (z-score),[29],-0.305
same,glycan array binding signal (z-score),[30],0.052
same,glycan array binding signal (z-score),[31],-0.276
same,glycan array binding signal (z-score),[32],-0.257
same,glycan array binding signal (z-score),[33],-0.579
same,glycan array binding signal (z-score),[34],0.12
same,glycan array binding signal (z-score),[35],-0.558
same,glycan array binding signal (z-score),[36],-0.794
same,glycan array binding signal (z-score),[37],-0.511
same,glycan array binding signal (z-score),[38],-0.261
same,glycan array binding signal (z-score),[39],-0.573
same,glycan array binding signal (z-score),[40],-0.082
same,glycan array binding signal (z-score),[41],0.057
same,glycan array binding signal (z-score),[42],-0.422
same,glycan array binding signal (z-score),[43],-0.674
same,glycan array binding signal (z-score),[44],-0.534
same,glycan array binding signal (z-score),[45],-0.506

# From the supplement of paper PMC8728848
